# Measurements published in the supplement of paper PMC8728848.
# This is one part of the list.
# B1: diCBM40 CPF071 (Clostridium perfringens) (protein)
# chain: MAHHHHHHVGTGSNDDDDKSPDPMLSSLGEYKDINLESSNASNITYDLEKYKNLDEGTIVVRFNSKDSKIQSLLGISNSKTKNGYFNFYVTNSRVGFELRNQKNEGNTQNGTENLVHMYKDVALNDGDNTVALKIEKNKGYKLFLNGKMIKEVKDTNTKFLNNIENLDSAFIGKTNRYGQSNEYNFKGNIGFMNIYNEPLGDDYLLSKTGETKALNGSELGSGSGLSSLGEYKDINLESSNASNITYDLEKYKNLDEGTIVVRFNSKDSKIQSLLGISNSKTKNGYFNFYVTNSRVGFELRNQKNEGNTQNGTENLVHMYKDVALNDGDNTVALKIEKNKGYKLFLNGKMIKEVKDTNTKFLNNIENLDSAFIGKTNRYGQSNEYNFKGNIGFMNIYNEPLGDDYLLSKTGETK
# Legend:
# Test in all cases: glycan array binding signal (z-score within array); higher = stronger binding
# Conditions in all cases: glycan notation: IUPAC condensed, linker removed
# [1] = biological target: Fuc(a1-2)[Gal(a1-3)]Gal(b1-4)GlcNAc(b1-2)Man(a1-3)[Fuc(a1-2)[Gal(a1-3)]Gal(b1-4)GlcNAc(b1-2)Man(a1-6)]Man(b1-4)GlcNAc(b1-4)[Fuc(a1-6)]GlcNAc
# Summary of the method: (§1)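 Glycan array binding is given as a within-array Z-score, which can be read as non-binding when negative. The arrays, 3228 of them, came from the Consortium for Functional Glycomics database and were retained only where the protein sequence was available. Z-scores were averaged across arrays of the same protein sequence at different concentrations or buffers and across linkers.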
# [2] = biological target: Fuc(a1-2)[Gal(a1-3)]Gal(b1-4)GlcNAc(b1-3)GalNAc
# Summary of the method: as §1
# [3] = biological target: Fuc(a1-2)[Gal(a1-3)]Gal(b1-4)GlcNAc(b1-3)[Fuc(a1-2)[Gal(a1-3)]Gal(b1-4)GlcNAc(b1-6)]GalNAc
# Summary of the method: as §1
# [4] = biological target: Fuc(a1-2)[Gal(a1-3)]Gal(b1-4)GlcNAc(b1-6)GalNAc
# Summary of the method: as §1
# [5] = biological target: Fuc(a1-2)[Gal(a1-3)]Gal(b1-4)[Fuc(a1-3)]Glc
# Summary of the method: as §1
# [6] = biological target: Fuc(a1-2)[Gal(a1-3)]Gal(b1-4)[Fuc(a1-3)]GlcNAc
# Summary of the method: as §1
# [7] = biological target: Fuc(a1-2)[Gal(a1-3)]Gal(b1-4)[Fuc(a1-3)]GlcNAc(b1-3)GalNAc
# Summary of the method: as §1
# [8] = biological target: Fuc(a1-2)[Gal(a1-4)]Gal(b1-4)GlcNAc
# Summary of the method: as §1
# [9] = biological target: Fuc(a1-2)[GalNAc(a1-3)]Gal
# Summary of the method: as §1
# [10] = biological target: Fuc(a1-2)[GalNAc(a1-3)]Gal(b1-3)GalNAc(a1-3)[Fuc(a1-2)]Gal(b1-4)GlcNAc
# Summary of the method: as §1
# [11] = biological target: Fuc(a1-2)[GalNAc(a1-3)]Gal(b1-3)GalNAc(b1-3)Gal(a1-4)Gal(b1-4)Glc
# Summary of the method: as §1
# [12] = biological target: Fuc(a1-2)[GalNAc(a1-3)]Gal(b1-3)GlcNAc
# Summary of the method: as §1
# [13] = biological target: Fuc(a1-2)[GalNAc(a1-3)]Gal(b1-3)GlcNAc(b1-2)Man(a1-3)[Fuc(a1-2)[GalNAc(a1-3)]Gal(b1-3)GlcNAc(b1-2)Man(a1-6)]Man(b1-4)GlcNAc(b1-4)GlcNAc
# Summary of the method: as §1
# [14] = biological target: Fuc(a1-2)[GalNAc(a1-3)]Gal(b1-3)GlcNAc(b1-2)Man(a1-3)[Fuc(a1-2)[GalNAc(a1-3)]Gal(b1-3)GlcNAc(b1-2)Man(a1-6)]Man(b1-4)GlcNAc(b1-4)[Fuc(a1-6)]GlcNAc
# Summary of the method: as §1
# [15] = biological target: Fuc(a1-2)[GalNAc(a1-3)]Gal(b1-3)GlcNAc(b1-3)GalNAc
# Summary of the method: as §1
# [16] = biological target: Fuc(a1-2)[GalNAc(a1-3)]Gal(b1-3)GlcNAc(b1-6)GalNAc
# Summary of the method: as §1
# [17] = biological target: Fuc(a1-2)[GalNAc(a1-3)]Gal(b1-4)Glc
# Summary of the method: as §1
# [18] = biological target: Fuc(a1-2)[GalNAc(a1-3)]Gal(b1-4)GlcNAc
# Summary of the method: as §1
# [19] = biological target: Fuc(a1-2)[GalNAc(a1-3)]Gal(b1-4)GlcNAc(b1-2)Man
# Summary of the method: as §1
# [20] = biological target: Fuc(a1-2)[GalNAc(a1-3)]Gal(b1-4)GlcNAc(b1-2)Man(a1-3)[Fuc(a1-2)[GalNAc(a1-3)]Gal(b1-4)GlcNAc(b1-2)Man(a1-6)]Man(b1-4)GlcNAc(b1-4)GlcNAc
# Summary of the method: as §1
# [21] = biological target: Fuc(a1-2)[GalNAc(a1-3)]Gal(b1-4)GlcNAc(b1-2)Man(a1-3)[Fuc(a1-2)[GalNAc(a1-3)]Gal(b1-4)GlcNAc(b1-2)Man(a1-6)]Man(b1-4)GlcNAc(b1-4)[Fuc(a1-6)]GlcNAc
# Summary of the method: as §1
# [22] = biological target: Fuc(a1-2)[GalNAc(a1-3)]Gal(b1-4)GlcNAc(b1-3)Gal(b1-4)GlcNAc
# Summary of the method: as §1
# [23] = biological target: Fuc(a1-2)[GalNAc(a1-3)]Gal(b1-4)GlcNAc(b1-3)Gal(b1-4)GlcNAc(b1-3)Gal(b1-4)GlcNAc
# Summary of the method: as §1
# [24] = biological target: Fuc(a1-2)[GalNAc(a1-3)]Gal(b1-4)GlcNAc(b1-3)GalNAc
# Summary of the method: as §1
# [25] = biological target: Fuc(a1-2)[GalNAc(a1-3)]Gal(b1-4)GlcNAc(b1-3)[Fuc(a1-2)[GalNAc(a1-3)]Gal(b1-4)GlcNAc(b1-6)]GalNAc
# Summary of the method: as §1
# [26] = biological target: Fuc(a1-2)[GalNAc(a1-3)]Gal(b1-4)GlcNAc(b1-6)GalNAc
# Summary of the method: as §1
# [27] = biological target: Fuc(a1-2)[GalNAc(a1-3)]Gal(b1-4)[Fuc(a1-3)]GlcNAc
# Summary of the method: as §1
# [28] = biological target: Fuc(a1-2)[GalNAc(a1-3)]Gal(b1-4)[Fuc(a1-3)]GlcNAc(b1-3)GalNAc
# Summary of the method: as §1
# [29] = biological target: Fuc(a1-2)[GalNAc(a1-4)]Gal(b1-4)GlcNAc
# Summary of the method: as §1
# [30] = biological target: Fuc(a1-2)[GalNAc(b1-3)]Gal
# Summary of the method: as §1
# Fuc(a1-3)GlcNAc = biological target: Fuc(a1-3)GlcNAc
# Summary of the method: as §1
# [31] = biological target: Fuc(a1-3)[Gal(b1-4)]Glc6S
# Summary of the method: as §1
# [32] = biological target: Fuc(a1-3)[Gal(b1-4)]GlcNAc
# Summary of the method: as §1
# [33] = biological target: Fuc(a1-3)[Gal(b1-4)]GlcNAc(b1-2)Man
# Summary of the method: as §1
# [34] = biological target: Fuc(a1-3)[Gal(b1-4)]GlcNAc(b1-2)Man(a1-3)[Fuc(a1-3)[Gal(b1-4)]GlcNAc(b1-2)Man(a1-6)]Man(b1-4)GlcNAc(b1-4)GlcNAc
# Summary of the method: as §1
# [35] = biological target: Fuc(a1-3)[Gal(b1-4)]GlcNAc(b1-2)Man(a1-3)[Fuc(a1-3)[Gal(b1-4)]GlcNAc(b1-2)Man(a1-6)]Man(b1-4)GlcNAc(b1-4)[Fuc(a1-6)]GlcNAc
# Summary of the method: as §1
# [36] = biological target: Fuc(a1-3)[Gal(b1-4)]GlcNAc(b1-3)Gal(b1-3)[Fuc(a1-4)]GlcNAc
# Summary of the method: as §1
# [37] = biological target: Fuc(a1-3)[Gal(b1-4)]GlcNAc(b1-3)Gal(b1-4)[Fuc(a1-3)]GlcNAc
# Summary of the method: as §1
# [38] = biological target: Fuc(a1-3)[Gal(b1-4)]GlcNAc(b1-3)Gal(b1-4)[Fuc(a1-3)]GlcNAc(b1-3)Gal(b1-4)[Fuc(a1-3)]GlcNAc
# Summary of the method: as §1
# [39] = biological target: Fuc(a1-3)[Gal(b1-4)]GlcNAc(b1-3)GalNAc
# Summary of the method: as §1
# [40] = biological target: Fuc(a1-3)[Gal(b1-4)]GlcNAc(b1-6)GalNAc
# Summary of the method: as §1
# [41] = biological target: Fuc(a1-3)[Gal(b1-4)]GlcNAc(b1-6)[Gal(b1-3)GlcNAc(b1-3)]Gal(b1-4)Glc
# Summary of the method: as §1
# [42] = biological target: Fuc(a1-3)[Gal(b1-4)]GlcNAc6S
# Summary of the method: as §1
# [43] = biological target: Fuc(a1-3)[Gal3S(b1-4)]Glc
# Summary of the method: as §1
# [44] = biological target: Fuc(a1-3)[Gal3S(b1-4)]GlcNAc
# Summary of the method: as §1
binder,measurement,setting,value
B1,glycan array binding signal (z-score),[1],-0.321
same,glycan array binding signal (z-score),[2],-0.23
same,glycan array binding signal (z-score),[3],0.192
same,glycan array binding signal (z-score),[4],-0.339
same,glycan array binding signal (z-score),[5],-0.307
same,glycan array binding signal (z-score),[6],-0.317
same,glycan array binding signal (z-score),[7],-0.201
same,glycan array binding signal (z-score),[8],-0.342
same,glycan array binding signal (z-score),[9],-0.302
same,glycan array binding signal (z-score),[10],-0.268
same,glycan array binding signal (z-score),[11],-0.281
same,glycan array binding signal (z-score),[12],-0.343
same,glycan array binding signal (z-score),[13],-0.308
same,glycan array binding signal (z-score),[14],-0.294
same,glycan array binding signal (z-score),[15],-0.288
same,glycan array binding signal (z-score),[16],-0.287
same,glycan array binding signal (z-score),[17],-0.264
same,glycan array binding signal (z-score),[18],-0.223
same,glycan array binding signal (z-score),[19],-0.328
same,glycan array binding signal (z-score),[20],-0.314
same,glycan array binding signal (z-score),[21],-0.324
same,glycan array binding signal (z-score),[22],-0.321
same,glycan array binding signal (z-score),[23],-0.168
same,glycan array binding signal (z-score),[24],-0.285
same,glycan array binding signal (z-score),[25],-0.287
same,glycan array binding signal (z-score),[26],-0.321
same,glycan array binding signal (z-score),[27],-0.317
same,glycan array binding signal (z-score),[28],-0.143
same,glycan array binding signal (z-score),[29],-0.255
same,glycan array binding signal (z-score),[30],-0.287
same,glycan array binding signal (z-score),Fuc(a1-3)GlcNAc,-0.335
same,glycan array binding signal (z-score),[31],-0.148
same,glycan array binding signal (z-score),[32],-0.346
same,glycan array binding signal (z-score),[33],-0.313
same,glycan array binding signal (z-score),[34],-0.326
same,glycan array binding signal (z-score),[35],-0.084
same,glycan array binding signal (z-score),[36],0.191
same,glycan array binding signal (z-score),[37],-0.287
same,glycan array binding signal (z-score),[38],-0.183
same,glycan array binding signal (z-score),[39],-0.257
same,glycan array binding signal (z-score),[40],-0.315
same,glycan array binding signal (z-score),[41],-0.311
same,glycan array binding signal (z-score),[42],-0.291
same,glycan array binding signal (z-score),[43],-0.174
same,glycan array binding signal (z-score),[44],-0.335
